Whole data set: some 110,000 compounds, median “z-score” near -0.1, cut for the highest 2% near 2. The list shows a part of the results. The source made the active and inactive calls.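 The calls were made as follows: active = z-score in the third read window above 3 or below -3; inactive = the rest.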
target: Metabotropic glutamate receptor 8 (Rattus norvegicus) (UniProt P70579); assay: mGluR8 Gi/Go-coupled signaling modulation – cell-based, rat, thallium flux, HTS, primary screen (AID 488969); settings: HEK293 rat mGluR8, GIRK (G protein-gated inwardly rectifying potassium channel) thallium flux, FluoZin2; at 10 µM; stronger effect = higher value; submaximal glutamate (EC20) added with thallium
Sequence of UniProt P70579 (P70579 whole entry, looked up): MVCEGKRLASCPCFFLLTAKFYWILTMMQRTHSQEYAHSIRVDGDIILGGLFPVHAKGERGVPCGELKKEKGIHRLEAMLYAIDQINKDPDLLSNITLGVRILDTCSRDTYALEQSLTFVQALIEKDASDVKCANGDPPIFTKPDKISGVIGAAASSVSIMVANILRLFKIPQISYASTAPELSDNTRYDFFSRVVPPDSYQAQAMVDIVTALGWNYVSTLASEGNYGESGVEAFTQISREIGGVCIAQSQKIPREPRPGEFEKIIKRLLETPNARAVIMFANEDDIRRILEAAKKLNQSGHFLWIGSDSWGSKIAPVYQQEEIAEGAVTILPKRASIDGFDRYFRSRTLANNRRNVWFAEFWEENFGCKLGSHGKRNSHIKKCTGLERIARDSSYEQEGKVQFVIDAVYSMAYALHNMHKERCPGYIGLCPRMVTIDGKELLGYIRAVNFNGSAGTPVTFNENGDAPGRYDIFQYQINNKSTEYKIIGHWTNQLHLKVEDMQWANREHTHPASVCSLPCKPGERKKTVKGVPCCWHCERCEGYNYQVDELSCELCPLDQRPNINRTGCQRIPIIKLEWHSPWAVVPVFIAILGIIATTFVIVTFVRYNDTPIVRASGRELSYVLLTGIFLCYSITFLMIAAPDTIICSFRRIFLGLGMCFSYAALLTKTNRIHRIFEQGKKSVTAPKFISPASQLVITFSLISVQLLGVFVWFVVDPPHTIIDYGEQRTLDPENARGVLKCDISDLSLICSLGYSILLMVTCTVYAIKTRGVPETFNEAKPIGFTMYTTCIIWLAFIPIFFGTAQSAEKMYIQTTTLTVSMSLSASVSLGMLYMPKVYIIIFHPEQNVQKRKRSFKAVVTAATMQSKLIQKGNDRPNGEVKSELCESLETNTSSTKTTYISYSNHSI

Compound	z-score
COc1ccc(CC(=O)Nc2ccc(-c3csc(C)n3)cc2)cc1	0.00773
Cc1cc(CSc2ccccc2)ccc1NC(=O)c1ccc(C)c([N+](=O)[O-])c1	-0.374
CCOc1ccc(NC(=O)C2CC(=O)N(C)C(=Nc3ccc4c(c3)OCO4)S2)cc1 (centres undefined)	0.974
Cc1cc(C)c(C(=O)CSc2n[nH]c(=O)n2C2CC2)cc1C	0.657
O=C(CSc1nc(Cc2ccccc2)nc2ccccc12)Nc1nc2c(s1)CCCC2	-0.124
S=C1NC(c2ccccc2)=NCN1c1ccc(Cl)cc1	active: 3.19
Fc1ccccc1/C=C1\CCCC2=C1Nc1ncnn1C2c1ccccc1F (centres undefined)	0.12
COc1ccc(OC)c(S(=O)(=O)Nc2ccc(C(C)=O)cc2)c1	-0.0352
CN1C(=O)CC(N2CCC(c3nc4ccccc4[nH]3)CC2)C1=O (centres undefined)	-0.0202
CCc1nc(NCc2ccccc2)c(C#N)c2c1CCCC2	-0.163
CCOC(=O)C1=C(C)N(C)C(=O)NC1c1c(C)nn(-c2ccccc2)c1C (centres undefined)	-0.0648
CCCCOCCCNC(=O)c1ccc(OCC)cc1	-0.474
Cc1ccccc1-c1noc(-c2ccccc2F)n1	-0.345
O=C(CC(O)(c1ccccc1)C(F)(F)F)c1cccs1 (centres undefined)	-0.171
COc1ccc(-c2nnc(Nc3ccc(CC(N)=O)cc3)c3ccccc23)cc1	-0.35
CC(/C=C/c1ccc(N(C)C)cc1)=N\N=C(/N)SC1CC(=O)N(c2ccc(C(=O)O)cc2)C1=O (centres undefined)	0.455
CC(=O)C1(C)OC(N)=C(C#N)C(c2ccccc2)C1(C#N)C#N (centres undefined)	-0.0829
CCOc1ccc2nc(-c3ccccc3)nc(SCC(=O)Nc3ncc(C)s3)c2c1	-0.067
CCC1CCCCN1CCNC(=O)CCS(=O)(=O)c1ccc(Br)cc1 (centres undefined)	0.377
Cc1c(NCc2cc(Cl)ccc2O)c(=O)n(-c2ccccc2)n1C	-0.0479
CCOC(=O)COc1c(OC)cc(Cl)cc1C1Nc2ccccc2C(=O)N1c1ccccc1 (centres undefined)	0.355
CCOC(=O)c1sc2nc(C3CC3)cc(-c3ccc(F)cc3)c2c1N	-0.494
CCOc1ccc(CC2CC(=O)NC2=O)cc1 (centres undefined)	0.322

Compound	z-score
CN(C)C1C(=O)c2ccccc2C1=O	-0.198
Cc1ccc(S(=O)(=O)NC(CC(N)=O)C(=O)O)cc1 (centres undefined)	0.938
O=C(NCCc1cccc(Cl)c1)c1ccc(Cl)c([N+](=O)[O-])c1	0.0647
O=c1oc(Nc2cccc(F)c2)nc2ccccc12	-0.269
Nc1ccc(C(=O)Nc2ccco2)cc1	-0.388
Cc1cccc2cc(C(c3nnnn3C3CCCC3)N3CCOCC3)c(=O)[nH]c12 (centres undefined)	0.212
COc1ccc(/C=C/C(=O)c2ccc(Cl)cc2)c(OC)c1	-0.125
COc1cccc(C(=O)COc2ccccc2-c2ccccc2)c1	0.361
Cc1cccc(-n2c3nc(=O)[nH]c(=O)c-3cc3c(C)nn(-c4ccccc4)c32)c1C	-0.128
Clc1cnc(N/N=C/c2ccco2)c(Cl)c1	0.0323
CCOC(=O)C(=NC1CCCCC1)NNc1cccc(C(F)(F)F)c1	-0.0996
CC(c1ccccc1)C1C(C#N)=C(N)SC(N)=C1C#N (centres undefined)	0.0839
NC(=O)c1c(NC(=O)CSc2nc3c(c(C(F)(F)F)n2)CCc2ccccc2-3)sc2c1CCCC2	-0.123
O=C(NCc1ccc(F)cc1)c1cc2sccc2n1Cc1ccc(F)cc1	0.0229
O=C(NCc1ccc(F)cc1)c1ccc(S(=O)(=O)Nc2cccc(C(F)(F)F)c2)cc1	0.136
CC(C)(C)C(=O)Nc1nnc(SCC(=O)NCc2cccs2)s1	0.0421
O=C(/C=C/c1ccccc1)N1CCN(Cc2nc3ccccc3c(=O)[nH]2)CC1	-0.232
CC(C)NC(=O)NC(=O)CSc1nnc(COc2ccccc2F)n1C(C)C1CC2CCC1C2 (centres undefined)	0.707
COc1ccc(C)cc1S(=O)(=O)N1CCN(S(=O)(=O)c2cc(C)ccc2OC)C(C)C1 (centres undefined)	-1.66
CN(C)N1C(N)=C(C#N)C(c2cccnc2)C2=C1CCCC2=O (centres undefined)	0.225
Cc1ccc2nc(C)c(C(=O)N/N=C/c3ccc(N4CCOCC4)cc3)cc2c1	-0.281
Cc1ccc(C(=O)NNC(=O)c2ccc(SCC3CCCO3)c([N+](=O)[O-])c2)cc1 (centres undefined)	0.19
COc1cccc(N2CCN(S(=O)(=O)c3ccc4nc(-c5ccccc5)[nH]c4c3)CC2)c1	0.374

Compound	z-score
COc1ccc(Cl)cc1C(=O)NNC(=O)c1cccnc1	-0.0155
O=C(Nc1ccc2c(c1)OCO2)c1c(F)c(F)c(F)c(F)c1F	-0.0616
CC12CC(c3ccccc3O1)N(C(=O)c1ccc(Br)o1)C(=O)N2c1ccccc1 (centres undefined)	-0.193
O=C(NCCCN1CCOCC1)c1cc(Cl)ccc1[N+](=O)[O-]	-0.502
Cc1ccc(C(NC(=O)N2CC(C)OC(C)C2)C(Cl)Cl)cc1F (centres undefined)	0.044
CCOc1cc(S(=O)(=O)N2CCOCC2)ccc1F	-0.0739
CCCCNC(=O)NS(=O)(=O)c1ccc(C(=O)OC)o1	-0.374
COc1cccc(Nc2nnc(SCn3nnc4ccccc4c3=O)s2)c1	0.432
O=C(NCc1ccccc1)c1ccc(S(=O)(=O)N2CCCc3ccccc32)cc1	-0.354
CCCNC(=O)c1nc2ncc(Br)cn2n1	-0.268
O=S(=O)(N/N=C1/CCCc2ccccc21)c1ccc(Br)cc1	0.0361
COC(=O)C1CN(S(=O)(=O)c2ccc(C)cc2)CCN1S(=O)(=O)c1ccc(C)cc1 (centres undefined)	0.112
CCCN(CCC)CCNC(=O)CS(=O)Cc1nc(-c2ccc(C)cc2)oc1C (centres undefined)	1.19
Cc1cc(C)c2c(=O)n(CC(=O)N3CCC(N4CCCCC4)CC3)sc2n1	-0.421
COc1cc(C(=O)NCc2cn3ccccc3n2)cc(OC)c1OC	-0.342
O=C(CCCC(=O)Nc1cccnc1)Nc1cccnc1	-0.0409
COc1ccccc1C(=O)Nc1nc2nc(-c3ccccc3)cc(=O)n2[nH]1	-0.239
CCc1ccccc1NC(=O)CSc1nnc([C@@H](N)Cc2ccccc2)o1	-0.715
O=C(N/N=C/c1cc([N+](=O)[O-])ccc1O)/C(=C\c1cccs1)NC(=O)c1ccccc1	0.101
CCC(=O)N1C(C(=O)O)CSC1c1ccc(OC)cc1 (centres undefined)	-0.165
COC(=O)c1sccc1NC(=O)CSc1ccccc1NS(=O)(=O)c1ccc(Br)cc1	2.31
CCCc1[nH]nc2c1C(c1ccc(OC)c(Cn3nc(C)c(Br)c3C)c1)C(C#N)=C(N)O2 (centres undefined)	0.0911
O=C(c1ccc(CNS(=O)(=O)c2cccc(C(F)(F)F)c2)cc1)N1CCOCC1	-0.0878

From PubChem BioAssay AID488969 (Vanderbilt High Throughput Screening Facility, 2010)
